For the assay, the system named is B16 melanoma ip, C57BL/6 mice, median survival T/C. The assay is described as follows: NCI In Vivo Anticancer Drug Screen. Data for tumor model B16 Melanoma (intraperitoneal) in C57BL/6 mice. The conditions noted are these: endpoint: median survival time, schedule: Q01DX009 (ip), vehicle: saline, higher = longer survival. The method, then:
The antitumor activity of compounds was measured in mice bearing transplantable tumors. Survival or tumor size were measured and the results are expressed as the measurement made in the treated group (T) divided by the measurement made in the vehicle treated control group (C). The tumor model used in this assay is B16 Melanoma (intraperitoneal) in C57BL/6 mice

Inconclusive results and toxic doses are left out. Not every entry of the source has a single result; some have several. The list is limited to them. An entry can have further records. The values listed for one entry differ for a reason that is not stated; some may be repeats, others may stem from another dose, organism or construct than stated.

As to `O=c1[nH]cc(N(CCCl)CCCl)c(=O)[nH]1`, where the note is “dose: 0.38 mg/kg/injection”, the T/C is recorded as 109 % of control, 112 % of control, 157 % of control.
With `O=P1(N(CCCl)CCCl)NCCCO1` (configuration not stated), where the note is “dose: 50.0 mg/kg/injection”, the T/C was 96 % of control and 153 % of control.

For the origin of these results see PubChem BioAssay AID198 (DTP/NCI, 2004).
